Measured values reported in PubChem BioAssay AID1461 (National Center for Advancing Translational Sciences (NCATS), 2008).
“And” between values parts separate entries of the source, which are not always exact repeats. Equal values may be shown once. The campaign covered roughly 220,000 compounds. About 2,300 (1%) were called active. The inconclusive results got no clear call from the source; some entries with a clear call stand among them for comparison. The call rests on the fitted dose curve; in most records, active means well fitted inhibition curve with a large enough effect; inconclusive means small, poorly fitted or top-dose-only effect, or effect the other way; inactive means no such curve, though single readings can be large or run the other way. Potencies of inconclusive entries are doubtful fits and often do not repeat.

The compounds below were run against Neuropeptide S receptor (Homo sapiens) (UniProt Q6W5P4) (assay: qHTS Assay for Antagonists of the Neuropeptide S Receptor: cAMP Signal Transduction). Conditions: CHO-NPSR cells, cAMP TR-FRET, antagonist mode; activity change, negative = inhibition: at 38.3 µM (top of the series) unless noted.
Further: nearly all actives have a fitted effect of over 50% in size.
On the % scale 0 is the no-effect control and ±100 the full control effect; potency means the concentration at half of the fitted maximal effect; tags describe the fitted curve by direction and shape.

Sequence of UniProt Q6W5P4 (Q6W5P4 whole entry, looked up): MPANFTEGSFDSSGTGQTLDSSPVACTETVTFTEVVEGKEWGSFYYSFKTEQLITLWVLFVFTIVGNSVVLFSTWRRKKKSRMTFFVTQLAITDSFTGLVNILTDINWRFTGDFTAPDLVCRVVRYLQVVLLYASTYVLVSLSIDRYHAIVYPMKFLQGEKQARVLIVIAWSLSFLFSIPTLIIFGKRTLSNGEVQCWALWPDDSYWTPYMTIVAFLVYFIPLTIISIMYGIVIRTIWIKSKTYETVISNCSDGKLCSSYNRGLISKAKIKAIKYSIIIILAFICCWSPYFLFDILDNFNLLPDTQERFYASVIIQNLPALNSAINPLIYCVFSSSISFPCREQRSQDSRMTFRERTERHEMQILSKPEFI

SMILES | activity change, negative = inhibition | Potency
C[C@@H](N)Cc1cnc[nH]1 | inactive: 12.1% [at 46.1 µM] | 
Nc1c2c(nc3sc4c(c13)CCCC4)CCCC2 | inactive: -14% | 
CC(C)(C)c1ccc(CN2C(=O)CN=C(c3ccccc3)c3ccccc32)cc1 |  | inconclusive: 12.6 µM [inhibitor, single point]
O=C1CN=C(c2ccc(Br)cc2)c2c(sc3c2CCCC3)N1CCN1CCCCC1 |  | inconclusive: 12.6 µM [inhibitor, single point]
N/C(=N\N=C\c1ccc(O)cc1O)N[N+](=O)[O-] | inactive: -14.6% [at 46.1 µM] | 
Cc1nccc2c1[nH]c1ccccc12 |  | inconclusive: 5.01 µM [activator, single point]
CC[n+]1c(/C=C/C=C/c2ccc(N(C)C)cc2)sc2ccccc21 |  | inconclusive: 2.51 µM [activator, partial curve]
O=C(Cc1ccccc1)N1CCN(Cc2ccccn2)CC1 | inactive: -8.11% [at 46.1 µM] | 
O=C1CC(N2CCC(n3c(=O)[nH]c4ccccc43)CC2)C(=O)N1c1ccc(F)cc1 (stereo not given) | inactive: -12.1% [at 46.1 µM] | 
CCCCN1C2CCC1CC(OC(c1ccc(F)cc1)c1ccc(F)cc1)C2 (stereo not given) |  | inconclusive: 15.8 µM [inhibitor, partial curve, poor fit]
CCCCC1(CCCC)C(=O)NC(=Nc2cccc(C)c2)NC1=O |  | inconclusive: 25.1 µM [inhibitor, single point]
C=C1C(=O)O[C@@H]2C[C@@H](C)[C@H]3C=CC(=O)[C@]3(O)C[C@@H]12 | inactive: -46.3% | 
COC(=O)c1ccc(COc2cc(C)cc3oc(=O)c4c(c23)CCCC4)o1 |  | inconclusive: 7.94 µM [inhibitor, partial curve]
CCOC(=O)C(O)(c1ccc(N(CC)S(=O)(=O)c2ccc(C)cc2)cc1)C(F)(F)F (stereo not given) |  | inconclusive: 10 µM [inhibitor, single point]
CC1CCCCN1Cc1c[nH]c2ccccc12 (stereo not given) |  | inconclusive: 12.6 µM [activator, single point]
COc1ccc2c(c[n+](C)c3c4cc5c(cc4ccc23)OCO5)c1OC |  | inconclusive: 20 µM [inhibitor, single point]
CNc1ccc2oc(C[C@H]3O[C@@]4(CC[C@H]3C)O[C@H]([C@H](C)C(=O)c3ccc[nH]3)[C@H](C)C[C@H]4C)nc2c1C(=O)O |  | active: 1.26 µM and active: 7.94 µM
COc1cccc(CN2CCN(C(=O)COc3ccc4ccccc4c3)CC2)c1 | inactive: -21.2% [at 46.1 µM] | 
CCOC(=O)Cc1csc(NC(=O)c2c(O)c3ccccc3n(CCC(C)C)c2=O)n1 |  | inconclusive: 10 µM [activator, single point]
CCCCn1c(O)c(C=NC2CC3CCC2(C)C3(C)C)c(=O)[nH]c1=O (stereo not given) |  | inconclusive: 12.6 µM [activator, single point]
O=c1c2cc(N3CCOCC3)ccc2[nH]c(=S)n1Cc1ccc(Cl)cc1 |  | inconclusive: 10 µM [inhibitor, single point]
CCNC(=S)NCCC1=c2ccccc2=N/C1=C\c1c(O)n(C)c(=O)n(C)c1=O |  | inconclusive: 10 µM [activator, partial curve]
CN1CC[C@@]2(C)c3cc(O)ccc3N(C)C12 (stereo not given in full) |  | inconclusive: 2 µM [inhibitor, single point]
CCC1(C)Cc2ccccc2-c2c1c(=O)n(Cc1ccccc1)c1nnnn21 (stereo not given) |  | inconclusive: 10 µM [inhibitor, single point]

SMILES | activity change, negative = inhibition | Potency
Cc1ccc(-n2c(-c3cccs3)nc3ccccc3c2=O)cc1 |  | inconclusive: 12.6 µM [inhibitor, partial curve, poor fit]
Cc1cc(/C=C2\C(=O)NC(=O)N(Cc3ccco3)C2=O)c(C)n1-c1ccc(O)cc1 | inactive: 7.35% | 
COc1ccc(C(C)=O)cc1CC(C(=O)c1ccc(C)cc1)N(C)C (stereo not given) | inactive: 13.9% | 
CC1CN=C(Nc2ccc(N(C)C)cc2)S1 (stereo not given) |  | inconclusive: 10 µM [inhibitor, partial curve]
COCCCn1c(N)c(C(=O)NCc2ccco2)c2nc3ccccc3nc21 | inactive: -31.4% | 
C#CCOc1ccc2c(c1)c(C(C)=O)c(C)n2Cc1ccccc1 |  | inconclusive: 10 µM [activator, single point]
Cc1cccc(OP(=O)(Oc2cccc(C)c2)OC(c2ccccc2)C(F)(F)F)c1 (stereo not given) |  | inconclusive: 5.01 µM [inhibitor, full curve, poor fit]
CCn1c(O)c(C=Nc2ccc(S(N)(=O)=O)cc2)c(=O)n(CC)c1=S | inactive: -36.6% | 
Cc1ccsc1C(=O)C1CCCN(Cc2cnc(N)nc2)C1 (stereo not given) |  | inconclusive: 12.6 µM [activator, single point]
CC(N)Cc1c[nH]c2ccc(O)cc12 (stereo not given) |  | inconclusive: 0.631 µM [inhibitor, full curve, poor fit]
C[C@]12CC(=CO)C(=O)C[C@@H]1CC[C@@H]1[C@@H]2CC[C@@]2(C)[C@H]1CC[C@]2(C)O |  | active: 6.31 µM
N#CCCn1cc(C(=O)Nc2ccc(F)cc2)c(-c2ccc([N+](=O)[O-])cc2)n1 | inactive: 11.8% | 
NC(Cc1cc(O)c(O)cc1O)C(=O)O (stereo not given) |  | inconclusive: 5.01 µM [inhibitor, single point]
CC(C)(C)n1cc(C(=O)c2ccccc2)cc1-c1ccccc1 |  | inconclusive: 12.6 µM [activator, single point]
CN(C)C1(c2nnnn2CCOC(=O)Nc2ccc(Cl)cc2)CCCCC1 |  | inconclusive: 12.6 µM [inhibitor, single point]
Cc1cccc(C(=O)OCc2cc3ccccc3[nH]c2=O)c1 |  | inconclusive: 31.6 µM [inhibitor, partial curve, poor fit]
Cn1ncnc2c(=O)n(C)c(=O)nc1-2 |  | active: 1 µM
CCCCCCn1c(N)c(C(=O)NCCN2CCOCC2)c2nc3ccccc3nc21 |  | inconclusive: 12.6 µM [inhibitor, single point]
CC(C)(C)N1C(=O)NC(=O)/C(=C\c2ccc3c(c2)CCN3CCCCl)C1=O | inactive: -7.29% | 
COc1ccc(C(Nc2cccc([N+](=O)[O-])c2)P(=O)(OC(C)C)OC(C)C)cc1 (stereo not given) |  | inconclusive: 10 µM [inhibitor, single point]
c1cncc(CNC2=NCCCCC2)c1 | inactive: -17% [at 46.1 µM] | 
COC(=O)N(c1ccccc1)P1(=S)OCCO1 |  | inconclusive: 15.8 µM [inhibitor, single point]
CC(C)N1C(=O)/C(=C/C=C/c2ccco2)C(=O)N(Cc2ccco2)C1=O |  | inconclusive: 10 µM [inhibitor, single point]
CN1CCN(c2ncnc(Cl)c2N)CC1 | inactive: 11.6% | 

SMILES | activity change, negative = inhibition | Potency
Clc1ccc(C2NCCc3[nH]cnc32)cc1 (stereo not given) | inactive: 19.8% | 
O=[N+]([O-])c1ccc(C2C3C(c4ccccc4)=NC4(CCCCC4)N32)cc1 (stereo not given) |  | inconclusive: 12.6 µM [inhibitor, partial curve]
Cc1ccccc1N1C(=O)NC(=O)/C(=C\c2ccc3c(c2)CCCN3Cc2ccccc2)C1=O | inactive: 4.66% | 
O=c1oc(Cl)c(Cl)c2ccccc12 |  | inconclusive: 12.6 µM [inhibitor, partial curve]
O=c1c2ccccc2nc(CSc2ncnc3nc[nH]c23)n1-c1ccccc1Cl | inactive: -10.2% [at 46.1 µM] | 
O=P(Oc1ccccc1)(Oc1ccccc1)C(Nc1ccccc1)c1ccccc1 (stereo not given) |  | inconclusive: 20 µM [inhibitor, partial curve, poor fit]
Cc1cccc(N2CCN(C(=O)c3ccc(CNc4c(N5CCC(C)CC5)c(=O)c4=O)cc3)CC2)c1C |  | inconclusive: 2 µM [inhibitor, full curve, poor fit]
Cc1cccc(N2C(=O)NC(=O)/C(=C\c3cnc(-c4ccccc4)nc3)C2=O)c1 | inactive: -47.6% | 
CCOc1cc(/C=C2/C(=O)NC(=O)N(c3ccc(CC)cc3)C2=O)ccc1OC(=O)c1cccs1 | inactive: -29% [at 46.1 µM] | 
CCCc1nc2ccc(Br)cc2c(=O)n1-c1ccc([N+](=O)[O-])c(C(F)(F)F)c1 |  | inconclusive: 10 µM [inhibitor, single point]
C=Cn1c(P(=S)(N2CCOCC2)N2CCOCC2)cc2c1CCCC2 |  | inconclusive: 12.6 µM [inhibitor, partial curve]
COc1ccc(Cc2nccc3cc(OC)c(OC)cc23)cc1OC |  | inconclusive: 20 µM [inhibitor, partial curve]
CCC(C)n1c(O)c(C=NC(C)c2ccccc2)c(=O)[nH]c1=S (stereo not given) |  | inconclusive: 25.1 µM [inhibitor, single point]
O=c1[nH]c(=O)n(CCC2=CCCCC2)c(O)c1/C=N/Nc1cccc2ccccc12 | inactive: 1.52% | 
O=c1c2ccccc2nc(N2CCCC2)n1-c1ccc(Cl)cc1 |  | inconclusive: 12.6 µM [inhibitor, single point]
CCN1/C(=C\C=C\C2=[N+](CC)c3ccccc3C2(C)C)C(C)(C)c2ccccc21 |  | active: 15.8 µM
CNCCc1c[nH]c2ccc(O)cc12 |  | inconclusive: 0.398 µM [inhibitor, full curve]
CC1CCC(C(C)C)C(OC(=O)Cn2c(COc3ccccc3)[n+](C)c3ccccc32)C1 (stereo not given) |  | inconclusive: 12.6 µM [inhibitor, single point]
CN1CCN(CCC(C#N)(c2ccccc2)c2ccccc2)CC1 |  | inconclusive: 7.94 µM [inhibitor, partial curve]
Oc1ccc(/C=N/NP(=S)(c2ccccc2)c2ccccc2)cc1O |  | inconclusive: 31.6 µM [inhibitor, single point]
CC(COc1ccccc1)N(CCCl)Cc1ccccc1 (stereo not given) |  | inconclusive: 7.94 µM [inhibitor, partial curve] and inconclusive: 25.1 µM [inhibitor, single point]
CC(C)C[C@H]1C(=O)N2CCCC2[C@]2(O)O[C@](NC(=O)[C@@H]3C=C4c5cccc6[nH]c(Br)c(c56)C[C@H]4N(C)C3)(C(C)C)C(=O)N12 (stereo not given in full) |  | active: 12.6 µM
